# In all, about 420,000 compounds went through this assay and about 540 (0.13%) were called active. This list was built around the results that the source calls inconclusive (neither active nor inactive); the mix of calls is not that of the screen. Cut-off read from the data, not from the text of the source: active = activity change below about -50%; inconclusive = mostly about -30% to -49%; inactive = weaker than that.
# Molecular target: Phosphatidylinositol 4-kinase type 2-alpha (Homo sapiens) (UniProt Q9BTU6)
# Experiment: qHTS for small molecular inhibitors of PI4K2A;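 note: -100% = wells without enzyme as full effect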
# Details: purified PI4K2A, ADP-Glo luminescence, 1 h; at 76.9 µM, active compounds read low
# In short: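 PI4K2A activity was measured by ADP-Glo luminescence: enzyme (4 ug/mL stock) and phosphatidylinositol (1.2 mM stock) in Tris pH 7.5/MgCl2/EGTA/Triton X-100 buffer were reacted with ATP (300 microM stock) for one hour at ambient temperature.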
# Sequence of UniProt Q9BTU6 (Q9BTU6 whole entry, looked up): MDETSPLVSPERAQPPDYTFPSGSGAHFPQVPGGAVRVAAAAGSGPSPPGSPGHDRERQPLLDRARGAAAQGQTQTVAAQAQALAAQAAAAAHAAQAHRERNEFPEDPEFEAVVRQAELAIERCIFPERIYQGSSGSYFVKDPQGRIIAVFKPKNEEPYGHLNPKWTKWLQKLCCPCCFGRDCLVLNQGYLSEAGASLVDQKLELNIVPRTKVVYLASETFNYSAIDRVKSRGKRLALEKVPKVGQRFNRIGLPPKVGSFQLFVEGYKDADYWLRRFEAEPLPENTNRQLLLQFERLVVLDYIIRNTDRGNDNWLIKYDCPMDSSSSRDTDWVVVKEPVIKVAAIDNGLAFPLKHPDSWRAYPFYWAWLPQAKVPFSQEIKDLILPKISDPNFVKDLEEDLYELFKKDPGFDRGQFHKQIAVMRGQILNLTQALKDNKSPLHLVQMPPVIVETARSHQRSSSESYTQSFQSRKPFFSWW
row,Compound,"activity change, negative = inhibition"
1,CCc1ccc(-c2ccc(C(=O)O)cc2)nc1,inconclusive: -42.3%
2,COc1ccc(-n2nnnc2C(CCc2ccccc2)N2CCN(C/C=C/c3ccccc3)CC2)cc1 (centres undefined),inactive: -0.397%
3,CSc1ccc(/C=N/NC(=O)c2sccc2C)cc1,inconclusive: -38.3%
4,O=C(O)c1ccc(S(=O)(=O)c2ccc3c(c2)C(=O)N(c2ccc(O)cc2)C3=O)cc1,inconclusive: -33.5%
5,O=C(/C=C/c1ccccc1)Nc1ccc(CN2CCOCC2)cc1,inactive: 0.975%
6,Oc1c(Br)cc(Br)cc1C=NCc1ccccc1,inconclusive: -34.8%
7,CCOC(=O)N1CCN(c2cc(NCCC(=O)O)c3c4c(onc24)-c2ccccc2C3=O)CC1,active: -57.1%
8,Cc1ccc(NC(=O)C(=Cc2ccc(C(=O)O)cc2)C(=O)Nc2ccc(C)cc2C)c(C)c1,inconclusive: -34.6%
9,C=CCc1cccc(C=Nc2c[nH]c(=O)[nH]c2=O)c1O,inconclusive: -43.2%
10,Cc1ccnc(NC(=O)CS(=O)(=O)c2ccccc2)c1,inactive: -5.82%
11,O=C1CC(=O)N(CCc2ccccc2)C(=O)N1CCc1ccccc1,active: -65%
12,NS(=O)(=O)c1ccc(N=Nc2c[nH]c(=O)c(O)c2)cc1,active: -61.6%
13,CC(NC1=CC(=O)c2cccnc2C1=O)C(O)c1ccccc1 (centres undefined),inconclusive: -43.2%
14,COc1cc(/C=C2\C(=O)N(c3cccc(C(=O)O)c3)N=C2C)ccc1OCc1ccccc1,active: -59%
15,CC(C)Sc1ncc(Cl)c(C(=O)Nc2ccc(S(=O)(=O)N3CCCCC3C)cc2)n1 (centres undefined),inconclusive: -40.4%
16,O=C(CCl)N=c1sccn1Cc1ccccc1Cl,inactive: 7.04%
17,N=c1n(CC(=O)c2ccc([N+](=O)[O-])cc2)c2ccccc2n1Cc1ccc(Cl)cc1,inconclusive: -30.9%
18,O=c1cc(-c2ccc(O)cc2)oc2c(C3O[C@H](CO)[C@@H](O)[C@H](O)[C@H]3O)c(O)cc(O)c12 (some centres undefined),inactive: -4.05%
19,Cc1cc(C)c(NC(=O)Cn2c(=O)n(Cc3ccc(C(=O)NCc4ccco4)cc3)c(=O)c3sccc32)c(C)c1,inconclusive: -43.5%
20,CC(C)C[C@H]1CN(CCCC[C@H]2CNC(=O)C(=O)N2CCc2ccccc2)C(=O)C(=O)N1Cc1ccccc1,inactive: 4.24%
21,C/C(=N\NC(=O)c1c[nH]c2ccccc12)c1ccc2c(c1)OCO2,inactive: -1.94%
22,Cc1oc2c(c1C(=O)c1ccccc1)C(=O)C(=O)c1ccccc1-2,active: -63.8%

row,Compound,"activity change, negative = inhibition"
1,COc1ccc(-c2cc3nc(C)n(N)c(=O)c3s2)cc1,active: -86.6%
2,C/C(=C\C(=O)c1ccccc1)Nc1ccc(O)cc1,active: -53.6%
3,c1ccc(CNCCCn2cnc3c(OCc4ccccc4)ncnc32)cc1,inactive: -3.93%
4,N#Cc1c(NC(=O)c2ccccc2Cl)n(Cc2ccccc2)c2nc3ccccc3nc12,active: -50.3%
5,O=S(=O)(N1CCOCC1)N1CCCN(S(=O)(=O)N2CCOCC2)CC1,inconclusive: -35.8%
6,COc1ccc(C(=O)Nc2ccccc2C(=O)N/N=C/c2ccc(O)c(OC)c2)cc1,active: -68.9%
7,COc1ccc(NC(=O)c2cc3c(s2)CCC3)cc1S(=O)(=O)N1CCOCC1,inconclusive: -33.7%
8,Cc1nc2ccccn2c1-c1csc(Nc2ccc(C(=O)O)cc2)n1,inactive: -5.28%
9,Cc1cc(C(=O)COC(=O)C(C)NC(N)=O)c(C)n1Cc1ccco1 (centres undefined),inactive: -0.677%
10,Oc1ccc(N=Cc2ccc(-c3cccs3)s2)cc1,active: -69.2%
11,Cc1cc(=O)n2[nH]c(-c3sccc3-n3c(C)ccc3C)cc2n1,inconclusive: -39.6%
12,CCC(CN(C)C)Oc1cc(NCc2ccccc2)c2ncn(C(C)C)c2c1 (centres undefined),inconclusive: -30.2%
13,COc1ccc(/C=N/NC(=O)c2ccoc2C)cc1OC,inactive: 5.97%
14,COc1ccc(Cl)cc1C(=O)OCC(=O)c1c(N)n(C)c(=O)n(C)c1=O,active: -70.7%
15,O=C(c1ccc(=O)oc1)N1CCCc2ccccc21,inactive: -24.2%
16,COC1=C(Br)C(=O)c2ncccc2C1=O,active: -55.1%
17,O=C(O)c1ccc(/C=N\Nc2ccccn2)cc1,active: -61.9%
18,O=C(Nc1nc(-c2ccco2)c(-c2ccco2)s1)c1ccc(F)cc1F,inconclusive: -33.4%
19,O=C(NCC1CC1)c1ccc2c3n(nc2c1)-c1ccccc1CO3,inconclusive: -34.1%
20,CC(C)Cn1c(=S)[nH]c2cc(Cl)ccc21,inactive: 1.54%
21,Cc1noc(C)c1S(=O)(=O)N(CC(=O)NCc1ccccc1Cl)c1ccc(C(C)C)cc1,inactive: -0.784%
22,COc1ccc(OC)c(NC(=O)COC(=O)c2ccc(-n3cnnn3)cc2)c1,inconclusive: -33.6%

# Source: PubChem BioAssay AID1346378 (National Center for Advancing Translational Sciences (NCATS), 2018)
